# Where “and” joins values, the source holds several entries; their conditions need not be identical. Equal entries are not always repeated. In all, about 94,000 compounds went through this assay and about 4,000 (4.3%) were called active. Inconclusive means that the source gave no clear call. Such entries were picked first, then a sample of the others. Calls follow the shape of the dose curve; as a rule, active = well fitted inhibition curve with a large enough effect; inconclusive = small, poorly fitted or top-dose-only effect; inactive = no such curve, though single readings can be large or run the other way. Potencies beside an inconclusive call are fits to weak or partial responses and may not hold up.
# Test: Cytotoxic Profiling in NIH 3T3 Cell Line of Diverse Libraries Using Quantitative High-Throughput Screening; also: nearly all actives have a fitted effect of over 55% in size
# Settings: NIH 3T3 viability, CellTiter-Glo ATP luminescence, 48-72 h; activity change, negative = cytotoxicity: at 96.7 µM (top of the series) unless noted; series mostly up to 96.7 µM
# Summary of the method: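 NIH 3T3 cells at 400 cells/well received 23 nL of compound by pintool and were incubated 48 or 72 h at 37 °C. Viability was read as ATP-coupled CellTiter-Glo luminescence.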
# % is scaled to controls: 0 for no effect and ±100 for the full control effect; potency is read from the fitted curve at half-maximal effect; tags tell the direction and shape of the fitted curve.
SMILES,"activity change, negative = cytotoxicity",Potency,outcome
COCCNC(=O)[C@H]1C[C@H](Oc2ccccc2)CN1C(=O)NCc1ccc(C)cc1,inactive: -4.77%,–,–
CC1=C[C@@H](CC#N)[C@H](C(C)C)C[C@H]1CC(=O)N1CCN(c2cnccn2)CC1,–,"inconclusive: 112 µM [inhibitor, partial curve, poor fit]",–
CCCC1(C2CCN(C(=O)Cc3ccc(OC)cc3)CC2)NC(=O)N(CCc2cccs2)C1=O (configuration not stated),–,"inconclusive: 22.4 µM [inhibitor, partial curve]",–
Fc1ccccc1-c1nnc([C@H]2CCN(Cc3ccccc3)C2)o1,–,"inconclusive: 112 µM [inhibitor, partial curve, poor fit]",–
CCOc1cc(C(=O)NC2CCN(c3cc(-c4ccccc4)[nH]n3)C2)cc(OCC)c1OCC (configuration not stated),–,"inconclusive: 50.1 µM [inhibitor, single point]",–
COc1ccc2[nH]cc(CCNC(=O)C3CCCCC(=O)N3Cc3ccccc3)c2c1 (configuration not stated),inactive: -14.5%,–,–
CCCn1c(C)cnc1CC1CCN(C(=O)NCc2ccc(C)cc2)CC1,inactive: -19.4%,–,–
COc1ccc(-c2cn(C)c(=O)n3cc(CN4CCN(C)CC4)nc23)cn1,–,"inconclusive: 89.1 µM [inhibitor, partial curve, poor fit]",–
COCCN1Cc2[nH]nc(-c3cccc(OC)c3)c2CC1=O,–,active: 100 µM,–
Cc1ccc(C(C(=O)N2CC(n3nc(C)cc3C)C2)N(C)C)cc1 (configuration not stated),inactive: -17.2%,–,–
COc1cc(NC(=O)[C@H]2CC[C@H]3CO[C@](C)(NC(=O)c4cnccn4)C(=O)N32)ccc1F,inactive: -14.2%,–,–
COc1ccccc1-c1nc(C(=O)NC2CC2)n2ccccc12,–,"inconclusive: 89.1 µM [inhibitor, partial curve, poor fit]",–
COc1cccc(-c2ccc(CN3C4CCC3CN(C(=O)Nc3ccccc3F)C4)cc2)c1,–,"active: 35.5 µM and inconclusive: 44.7 µM [inhibitor, partial curve, poor fit]",–
Cc1noc2c(-c3cccc(CO)c3)cc(-c3cccc(C(F)(F)F)c3)nc12,–,active: 25.1 µM,–
COC(=O)[C@@H]1Cc2c([nH]c3ccccc23)[C@H]2C[C@@H](NCc3cccnc3)C[C@@H](c3ccc(F)cc3)N21,–,active: 20 µM,–
Cc1cc(=O)n(CC(=O)Nc2ccc3c(c2)OCCO3)c(N2CCc3ccccc3C2)n1,–,"inconclusive: 70.8 µM [inhibitor, partial curve, poor fit]",–
O=C1CN([S+](=O)([O-])c2ccc(F)cc2)CC(O)CN1Cc1ccc(Cl)cc1 (configuration not stated),–,"inconclusive: 50.1 µM [inhibitor, partial curve, poor fit]",–
CC(C)N1CC[C@H](c2nc3ccc(C#N)cc3[nH]2)C1,inactive: -11.2% [at 230 µM],–,–
Cc1ccc(CNC(=O)N2CCC(c3noc(-c4ccccc4)n3)C2)cc1 (configuration not stated),–,"inconclusive: 39.8 µM [inhibitor, partial curve]",–
O=C(NCC1CCCCCC1)C1CCCN(c2nccc(Nc3ccccc3F)n2)C1 (configuration not stated),–,"inconclusive: 14.1 µM [inhibitor, full curve, poor fit]",–
CCOC(=O)C1=C(C)N=C2SC=C(CC(=O)N3CCC(C)CC3)N2C1c1cccc(OC)c1 (configuration not stated),–,"inconclusive: 44.7 µM [inhibitor, partial curve, poor fit]",–
COc1ccccc1Nc1ccnc(N2CCC(NC(=O)c3ccc(C)cc3)CC2)n1,–,active: 39.8 µM,–
CNC(=O)c1ccc2c(c1)C1(CCN(CC3CC3)C1)CN2Cc1ccccc1 (configuration not stated),–,"inconclusive: 79.4 µM [inhibitor, partial curve]",–

SMILES,"activity change, negative = cytotoxicity",Potency,outcome
Cc1noc(C)c1-c1cc2c(c(-c3cccc(O)c3)c1)C(=O)N(C)C2,inactive: -50.7% [at 138 µM],–,–
Fc1ccc(-c2ccc3ncc(Nc4cc(F)cc(N5CCOCC5)c4)n3n2)cc1,–,"inconclusive: 50.1 µM [inhibitor, partial curve, poor fit]",–
COc1ccc(-n2nc3n(c2=O)CCN(C(=O)c2ccc4c(c2)OCO4)C3)cc1,–,"inconclusive: 50.1 µM [inhibitor, partial curve, poor fit]",–
COc1ccc(-c2ncc3c(n2)OCCN(Cc2ccccc2)C3=O)cc1,–,"inconclusive: 89.1 µM [inhibitor, single point]",–
CC(C)N1C[C@H](O)C[C@H]1c1nnc2n1CCN(C(=O)c1ccccc1)CC2,inactive: 0.137%,–,–
O=C(Nc1nc2c(s1)CCC2)C1CC(=O)N(c2n[nH]c3ccccc23)C1 (configuration not stated),–,"inconclusive: 50.1 µM [inhibitor, partial curve, poor fit]",–
Cc1ccccc1C(=O)N1CCc2nc(C3CC3)nc(-c3ccc(Cl)cc3)c2C1,–,"inconclusive: 56.2 µM [inhibitor, partial curve, poor fit]",–
Cc1cccc(OCCc2noc(C3CNC3)n2)c1,–,active: 28.2 µM,–
COCCOC1CN(C2CCN(Cc3cccc(C)c3)CC2)C12CCCCC2 (configuration not stated),–,"inconclusive: 44.7 µM [inhibitor, partial curve, poor fit]",–
COc1cccc(C2CNC(=O)c3nc(-c4ccc(C(=O)N(C)C)o4)[nH]c3C2)c1 (configuration not stated),inconclusive: -34.4% [inhibitor],–,–
N#Cc1cccc(CN2C[C@@H](CO)[C@H](c3ccccn3)C2)c1,–,"inconclusive: 35.5 µM [inhibitor, full curve, poor fit]",–
Cc1ccc(N2CCN(C(=O)C[C@H]3NC(=O)c4ccccc4NC3=O)CC2)c(C)c1,–,"inconclusive: 14.1 µM [inhibitor, partial curve, poor fit]",–
c1ccc(-c2ccnc(NCC3OCCc4ccccc43)n2)nc1 (configuration not stated),–,"inconclusive: 79.4 µM [inhibitor, partial curve, poor fit]",–
COc1ccc(S(=O)(=O)N2CCC(CCOc3ccccc3F)C2)cc1 (configuration not stated),–,"inconclusive: 50.1 µM [inhibitor, partial curve, poor fit]",–
CC(=O)Nc1ccc(-c2nnc3n2CCN(C(=O)c2ccccc2Cl)C3)cc1,–,–,inactive
Cc1nn2c(c1-c1cccnc1N1CCOCC1)N(CCC(C)C)CCC2,–,"inconclusive: 20 µM [inhibitor, partial curve, poor fit]",–
COc1cccc(C(=O)N2CCCC2C(=O)N2CCC(c3nc4ccncc4[nH]3)C2)c1 (configuration not stated),inactive: -2.35%,–,–
CCc1nc2c(c(-c3ccc(Cl)cc3)n1)CN(Cc1cccc(OC)c1)CC2,–,active: 12.6 µM,–
CC(C)N1C[C@@H]2C[C@H]1C(=O)N(Cc1cccnc1)c1ccccc1O2,–,"inconclusive: 89.1 µM [inhibitor, partial curve]",–
CC(C)CCN1C[C@H]2[C@H](C1)[S+](=O)([O-])C(C)(C)C(=O)N2Cc1ccc(O)cc1,–,"inconclusive: 56.2 µM [inhibitor, partial curve, poor fit]",–
COc1cccc(CN2CCCC(COc3ccccc3C(=O)N3CCC(C)CC3)C2)c1 (configuration not stated),–,"inconclusive: 50.1 µM [inhibitor, partial curve, poor fit]",–
CC(=O)N1CCN(Cc2ccccc2-c2ccc(C)c(Cl)c2)CC1,–,"inconclusive: 50.1 µM [inhibitor, partial curve, poor fit]",–
O=C(NCCCc1ccccc1)C1CCCN(c2nc3ncccc3o2)C1 (configuration not stated),inactive: -17.1%,–,–

SMILES,"activity change, negative = cytotoxicity",Potency,outcome
COc1ccc(-c2ccc(NC(=O)c3ccc(C)cc3)cc2)nn1,–,"inconclusive: 100 µM [inhibitor, single point]",–
COc1cccc(-c2ccc(CN3CCCC3C(=O)N3CCOCC3)cc2)c1 (configuration not stated),inactive: -25.5%,–,–
O=C(NCc1cccc(C(F)(F)F)c1)c1ccc2nc(-c3ccncc3)oc2c1,–,"inconclusive: 25.1 µM [inhibitor, full curve]",–
COCCOCC(=O)N1CCC(N2C[C@H](OC)[C@@H]2c2cccnc2)CC1,inactive: -16.7%,–,–
Cc1ccc(C(=O)N2CCCN(c3cc(-c4ccc(Cl)cc4)[nH]n3)CC2)cc1C,–,active: 35.5 µM,–
COc1ccc(-c2ccc3nnc(CNC(=O)CNC(=O)c4ccccc4)n3n2)cc1,inactive: -21.8%,–,–
CC1(c2ccccc2)N(Cc2ccccc2C#N)C(=O)OC12CCN(C(=O)CN1CCOCC1)CC2 (configuration not stated),–,"inconclusive: 44.7 µM [inhibitor, partial curve, poor fit]",–
COc1ccccc1Nc1ccnc(N2CCCC(C(=O)NC3CCOCC3)C2)n1 (configuration not stated),inactive: -27.6%,–,–
COC(=O)CNC(=O)N1CCC2(CC1)N(Cc1ccccc1)C(=O)CS2(=O)=O,inactive: -25.2%,–,–
O=C(C[C@@H]1CCNC[C@@H]1Cc1cc(COc2ccccc2)on1)N1CCOCC1,inactive: -11.8% [at 174 µM],–,–
CNC(=O)c1cc(C2CC2)nc2c1c(C1CCCN1[S+](=O)([O-])c1cccs1)nn2C (configuration not stated),–,"inconclusive: 50.1 µM [inhibitor, partial curve, poor fit]",–
Cc1cc(C)cc(-c2ccc(CN3CCCC(NC(=O)c4ccc(F)cc4)C3)cc2)c1 (configuration not stated),inactive: -20.4%,–,–
OCC1CN(Cc2ccccc2)CC12CCN(C1CCC1)CC2 (configuration not stated),inactive: -20.4%,–,–
O[C@H]1CN[C@H](c2nc(-c3ccccn3)no2)C1,inactive: -6.89% [at 230 µM],–,–
CCC1Oc2ccc(NC(=O)Cc3cccs3)cc2CN(C(CC)c2ccccc2)C1=O (configuration not stated),–,"inconclusive: 28.2 µM [inhibitor, full curve, poor fit]",–
CC(C)CN(Cc1ccncc1)C1CN(C(=O)CCCc2ccccc2)C1,inactive: -30.4%,–,–
COc1ccc(N2CC3CCC(C2)N3C(=O)c2ccc3c(c2)OCO3)cc1,–,"inconclusive: 44.7 µM [inhibitor, partial curve, poor fit]",–
Cc1cnc(-c2ccccc2)n1C1CCN(C(=O)NCc2ccccc2)C1 (configuration not stated),inactive: -27.8%,–,–
COc1ccc(-c2ccc(C(=O)N3CCC(NC(=O)c4ccc(F)cc4)C3)cc2)nn1 (configuration not stated),–,–,inactive
CN(C)C(=O)c1cccnc1CC1CC(=O)N(c2ccccc2)C1 (configuration not stated),inactive: 0.143%,–,–
O=C(Cc1ccccc1F)N1CCCN(c2cc(-c3ccc(Cl)cc3)[nH]n2)CC1,–,"inconclusive: 50.1 µM [inhibitor, partial curve, poor fit]",–

# Reference: PubChem BioAssay AID1345082 (National Center for Advancing Translational Sciences (NCATS), 2018)
